Some of these densities may be calculated back from excess volumes.
Experiment: xn = mol fraction of the nth substance listed
Conditions: 100 kPa

CNc1ccccc1 + CC[n+]1ccn(C)c1.F[B-](F)(F)F
mass density [kg/m3]
Conditions	x2 = 0	x2 = 0.1046	x2 = 0.2048	x2 = 0.3057	x2 = 0.3985	x2 = 0.5064	x2 = 0.6045	x2 = 0.6994	x2 = 0.8005	x2 = 0.9084
293.15 K	–	1042.1	1084.9	1122.1	1152.4	1182.1	–	1228.5	1248.5	1268.8
303.15 K	–	1034.8	1077.1	–	1144.6	1174.2	1198.9	1220.9	1241.3	1261.8
313.15 K	970.3	–	–	1105.9	1136.9	1166.3	1191.3	1213.2	1234	1254.8
323.15 K	962.1	1020.1	1061.5	1097.9	1129.1	1158.5	–	1205.5	1226.8	1247.9

CC[n+]1ccn(C)c1.F[B-](F)(F)F + CNc1ccccc1
x1 = 1
Conditions	mass density [kg/m3]
293.15 K	1283.6
303.15 K	1276.1
313.15 K	1268.6
323.15 K	1261

Source: a compilation of properties of binary mixtures (doi:10.1007/s10953-017-0578-y)
